± gives the standard error. Variants at the floor of the assay are shown more often than the library holds them.
B1: glmS ribozyme (parent)
chain: AUAAAAGCGCCAGAACUACAGAAAUGUAGUUGACGAGGAGGAGGUUUAUCGAAUUUUCGGCGGAUGCCUCCAAA

Assays:
Details in all cases: with glucosamine-6-phosphate
glucosamine-6-phosphate [1] = variants of: B1; test: self-cleavage kobs at 640 uM GlcN6P; higher = faster cleavage; RNA array
Outline: (§1)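 The measurements used barcoded ribozyme variants on sequenced MiSeq chips, transcribed in situ by E. coli RNA polymerase and tracked at 37 °C with a hybridised Cy3 probe. Glucosamine-6-phosphate, 40 μM to 10 mM in HEPES/KCl/Mg(OAc)2 buffer, was flowed in while tiles were imaged over ~14 h. Baseline-normalised signals, also normalised to non-cleaving reference variants, gave per-tile medians that were fit to one- or two-exponential decays for kobs. kcat and KM resulted from weighted Michaelis–Menten fits across concentrations.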

glucosamine-6-phosphate [2] = variants of: B1; test: self-cleavage kobs at 2500 uM GlcN6P; higher = faster cleavage; RNA array
Outline: as §1

glucosamine-6-phosphate [3] = variants of: B1; test: self-cleavage kobs at 160 uM GlcN6P; higher = faster cleavage; RNA array
Outline: as §1

glucosamine-6-phosphate [4] = variants of: B1; test: self-cleavage kobs at 10000 uM GlcN6P; higher = faster cleavage; RNA array
Outline: as §1

Row | Variant | self-cleavage kobs at 640 uM GlcN6P (glucosamine-6-phosphate [1]) [s⁻¹] | self-cleavage kobs at 2500 uM GlcN6P (glucosamine-6-phosphate [2]) [s⁻¹] | self-cleavage kobs at 160 uM GlcN6P (glucosamine-6-phosphate [3]) [s⁻¹] | self-cleavage kobs at 10000 uM GlcN6P (glucosamine-6-phosphate [4]) [s⁻¹]
1 | AUAAAAGCGCCAGACUUACAGAAAUGUAGUUGCCGAGGAGGAGGUUUAUCGAAUUUUCGGCGGAUGGCUUCAAA | < 1e-05 | < 1e-05 |  | 
2 | AUAAAAGCGCCAGACCUACAGAAAUGUAGUUGACCAGGAGGAGGUUUAUCGAAUUUUCGGCGGAUGCCUCCAAA | < 1e-05 | < 1e-05 | < 1e-05 | < 1e-05
3 | AUAAAAGCGCCAGACCUACAGAAAUGUAGUUGACGAGGAGGAGGUUUACCGAAUUUUGGGAGGAUGCCUCCAAA | < 1e-05 |  |  | 
4 | AUAAAAGCGCCAGAGCUACAGAAAUGUAGUUGACGAGGAGGAGGUUUAUCGAAUUUUGGGCGGAUGCUUCCAAA | 6.1e-05 ± 1.7e-05 | 5.67e-05 ± 1.6e-05 | 8.66e-05 ± 3.1e-05 | 3.61e-05 ± 1.6e-05
5 | AUAAAAGCGCCAGAGCUACAGAAAUGUAUUUGACGAGGAGGACGUUUAUCGAAUUUUCGGCGGAUGCCUCCAAA | < 1e-05 |  | < 1e-05 | 
6 | AUAAAAGCGCCAGAGCUACAGAAAUGUAGUUGACUAGGAGGAGGCUUAUCGAAUUUUCGGCGGAUGCCUCCAAA | < 1e-05 | < 1e-05 | < 1e-05 | 
7 | AUAAAAGCGCCAGAGCUACAGAAAUGUAGUUGACGAGGAGGAGCUUUAUCGAAUUUUCUGCGGAUGCCUCCAAA | < 1e-05 | < 1e-05 |  | 
8 | AUAAAAGCGCCAGAGCUACAGAAAUGUAGUUGACGAGGAGGAGGUUCAUCGAAUUUUCGGCGAAUGCCUCCAAA | < 1e-05 | < 1e-05 | < 1e-05 | 
9 | AUAAAAGCGCCAGAUCUACAGAAAUGUAGUUGGCGAGGAGGGGGUUUAUCGAAAUUUCGGCGGAUGCCUCCAAA | < 1e-05 | < 1e-05 |  | 
10 | AUAAAAGCGCCAGAUCUACAGAAAUGUAGUUGUCGAGGAGGAAAUUUAUGGAAUUUUCAGCGGAUGUCUCCAAA | < 1e-05 | < 1e-05 | < 1e-05 | 
11 | AUAAAAGCGCCAGAUCUACAGAAAUGUAGUUGACGAGGAGGAGGUUUAUCGAAUUUUCGGCGGAUGCGUCCAAA | 2.81e-05 ± 1.4e-05 | 4.48e-05 ± 1e-05 |  | 
12 | AUAAAAGCGCCAGAUCUACAGAAAUGUAGUUGACGAGAAGGCGGAUUAUCGAAUUUUCGGCGGAUGCCUCCAAA | < 1e-05 |  |  | 
13 | AUAAAAGCGCCAGAUCUACAGAAAUGUAGUUGACGAGGAGGAGAUUUCUGGAAUUUUCAGCGGAUGCCUCCAAA | < 1e-05 | < 1e-05 |  | 
14 | AUAAAAGCGCCAGAUCUACAGAAAUGUAGUUGACGAGGAGGAGUUUUACCGAAUUUUCGGCGGAUGCCUCCAAA | < 1e-05 | < 1e-05 |  | 
15 | AUAAAAGCGCCAGAUCUACAGAAAUGUAGUAGACGAGGAGGAGGUUUUUCGAAUUUUGGGAGGAUGCCUCCAAA | < 1e-05 | < 1e-05 |  | 
16 | AUAAAAGCGCCAGAAAUACAGAAAUGUAGUUGACGUGGAGGAGGUUUGUCGAAUUUUCGGCGGAUGCCUCCAAA | < 1e-05 |  | < 1e-05 | < 1e-05
17 | AUAAAAGCGCCAGAAAUACAGAAAUGUAGUUGACGAGGAGGAGGUUUAUGGAAUCUUCGGCGCAUGCCUGCAAA | 0.00119 ± 0.00038 |  | 0.000129 ± 4.7e-05 | 
18 | AUAAAAGCGCCAGAAAUACAGAAAUGUAGUUGACGAGGAGGAGGUUUAUCGAAUUUUCGGCCGAUGCCACCAAA | < 1e-05 |  |  | 
19 | AUAAAAGCGCCAGAAGUACAGAAAUGUAGUUGACGAGGUGGAGGUUUAUCGAAUUUUCGGCGGAUGCAUCCAAA | < 1e-05 |  |  | < 1e-05

Row | Variant | self-cleavage kobs at 640 uM GlcN6P (glucosamine-6-phosphate [1]) [s⁻¹] | self-cleavage kobs at 2500 uM GlcN6P (glucosamine-6-phosphate [2]) [s⁻¹] | self-cleavage kobs at 160 uM GlcN6P (glucosamine-6-phosphate [3]) [s⁻¹] | self-cleavage kobs at 10000 uM GlcN6P (glucosamine-6-phosphate [4]) [s⁻¹]
20 | AUAAAAGCGCCAGAAGUACAGAAAUGUAGUUGACGAGGAGGAGGUUUAUCGAAUUUUCGGCCGAUGCCUCCAAA | < 1e-05 | < 1e-05 | < 1e-05 | 
21 | AUAAAAGCGCCAGAAGUACAGAAAUGUAGAUGACGAGGAGGAGGUUUAUCGAAUGUUCGGCGGAUGCCUCCAAA | 0.000125 ± 5.7e-05 | 8.11e-05 ± 3.1e-05 |  | 
22 | AUAAAAGCGCCAGAAGUACAGAAAUGUAGUUGACGAGGAGGAGGUUUAUCGAAUUUUCGGCGGAGGCCUCCAAA | 0.000149 ± 6.2e-05 | 0.000455 ± 0.00013 | 6.11e-05 ± 1.6e-05 | 0.00143 ± 0.00036
23 | AUAAAAGCGCCAGAAUUACAGAAAUGUAGUUGACGAGGAGGAGGUUUAUCGAAUUUUCGGCGGACGCCUCCAAA | 0.000152 ± 2.2e-05 | 0.000332 ± 6.8e-05 | 8.27e-05 ± 1.8e-05 | 0.000697 ± 0.00011
24 | AUAAAAGCGCCAGAACUAAAGAAAUGUAGUUGUCGAGGAGGAGGUUUAUGGAAUUCUUGGCGUAUGCGUCCAAA | 0.000599 ± 0.00016 |  |  | 
25 | AUAAAAGCGCCAGAACUAAAGAAAUGUAGUUGACGAGGAGGAGGUUUAUCGAACUUUAGGCGGAUGCGUCCAAA | 9.88e-05 ± 2.4e-05 | 0.00036 ± 0.0001 |  | 
26 | AUAAAAGCGCCAGAACUACAGAAAUGGUGGUGACGAGGAGGAGGUUUAUCGAAUUUUCGGCGGAUGCAUCCAAA | < 1e-05 | < 1e-05 |  | 
27 | AUAAAAGCGCCAGAACUACAGAAAUGUAAUUGUCGAGGAGGAGUUUUAUCGAAUUUUCGGCGGAUGCCUCCAAA | < 1e-05 |  |  | 
28 | AUAAAAGCGCCAGAACUACAGAAAUGUAAUUGACCAGGAGGAGGUUUAUCGAAUUUACGGCGGAUGCCUCCAAA | < 1e-05 |  |  | 
29 | AUAAAAGCGCCAGAACUACAGAAAUGUAAUUGACGAGGAGGAGGUUUAUCCAAUUUUCCGCGGAUGCCUCCAAA | < 1e-05 |  |  | 
30 | AUAAAAGCGCCAGAACUACAGAAAUGUAAGUGACGAGGAGGAGGUUUAUCGGAUUUUCGGCGGAUGCCUCCAAA | 7.23e-05 ± 1.9e-05 | 0.000399 ± 9.4e-05 |  | 
31 | AUAAAAGCGCCAGAACUACAGAAAUGUAAUUGACGAGGAGGAGGUUUAACGAGUUUUCGGCGGAUGCAUCCAAA | 7.05e-05 ± 2.9e-05 |  |  | 
32 | AUAAAAGCGCCAGAACUACAGAAAUGUACUUGACGAGGAGGAGGUUUAUCGUGUUUUCGGCGGAUGCCUCCAAA | < 1e-05 |  |  | 
33 | AUAAAAGCGCCAGAACUACAGAAAUGUACUUGACGAGGAGGAGGUUUAUCGAAUUUUCGGCGGAUGCGUCCAAA | 5.49e-05 ± 1.9e-05 |  |  | 
34 | AUAAAAGCGCCAGAACUACAGAAAUGUACUUGACGAGGAAGAGUUUUAUCGAAUUUUCGGCGGGUGCCUCCAAA | < 1e-05 | < 1e-05 |  | 
35 | AUAAAAGCGCCAGAACUACAGAAAUGUACUUGACGAGGAGGAAGUUUAUCGAAUUUUCGGCGGAUGCCUCCAAA | < 1e-05 |  |  | 
36 | AUAAAAGCGCCAGAACUACAGAAAUGUACUUGACGAGGAGGAGGUUUAUCUAAUUUUCGGCGGAUGCCUCCAAA | < 1e-05 |  |  | 
37 | AUAAAAGCGCCAGAACUACAGAAAUGUACUUGACGAGGAGGAGGUUUAUCGAAUUUUCGUCGGAUGCCUCCAAA | < 1e-05 | < 1e-05 | < 1e-05 | < 1e-05

From the supplement of paper PMC7125110
